{"source": "the supplement of paper PMC4604168 (melanoma cell lines)", "note": "The other results are listed elsewhere or left out. Repeats are few or missing, and single values can be far off.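 Note: cells treated in 1,536-well plates, then fixed and DAPI-stained, with nuclei counted from automated high-throughput microscope images.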", "data": [{"system": "MEL-HO", "assay": "cell count relative to DMSO control; melanoma cells; higher = more viable cells", "details": "library dose: standard library concentration; 72 h", "units": {"cell count": "%"}, "values": [{"smiles": "Cn1cnc2c(F)c(Nc3ccc(Br)cc3Cl)c(C(=O)NOCCO)cc21", "note": "[selumetinib] + O=C(O)C(=O)Nc1sc2c(c1C(=O)O)CCNC2 [TCS401] (first compound 0.075 µM, partner dose 8.33333 µM)", "cell count": 96.1}, {"smiles": "COc1cc([C@@H]2c3cc4c(cc3[C@@H](O[C@@H]3O[C@@H]5CO[C@@H](C)O[C@H]5[C@H](O)[C@H]3O)[C@H]3COC(=O)[C@H]23)OCO4)cc(OC)c1O", "note": "[etoposide] + C=C(c1ccc(C(=O)O)cc1)c1cc2c(cc1C)C(C)(C)CCC2(C)C [Bexarotene] (first compound 0.1 µM, partner dose 10 µM)", "cell count": 89.9}, {"smiles": "C[C@]1(O)C[C@@H](c2nc(-c3ccc4ccc(-c5ccccc5)nc4c3)c3c(N)nccn32)C1", "note": "+ C=C(c1ccc(C(=O)O)cc1)c1cc2c(cc1C)C(C)(C)CCC2(C)C [Bexarotene] (first compound 2 µM, partner dose 10 µM)", "cell count": 78.6}, {"smiles": "C[C@]1(O)C[C@@H](c2nc(-c3ccc4ccc(-c5ccccc5)nc4c3)c3c(N)nccn32)C1", "note": "+ NC1(c2ccc(-c3nc4ccn5c(=O)[nH]nc5c4cc3-c3ccccc3)cc2)CCC1 [MK2206] (first compound 2 µM, partner dose 2 µM)", "cell count": 76.3}, {"smiles": "COc1cc([C@@H]2c3cc4c(cc3[C@@H](O[C@@H]3O[C@@H]5CO[C@@H](C)O[C@H]5[C@H](O)[C@H]3O)[C@H]3COC(=O)[C@H]23)OCO4)cc(OC)c1O", "note": "[etoposide] + Cn1c(Nc2ccc(C(F)(F)F)cc2)nc2cc(Oc3ccnc(-c4ncc(C(F)(F)F)[nH]4)c3)ccc21 [CHIR265] (first compound 0.1 µM, partner dose 0.4 µM)", "cell count": 63.2}, {"smiles": "Cn1cnc2c(F)c(Nc3ccc(Br)cc3Cl)c(C(=O)NOCCO)cc21", "note": "[selumetinib] + O=c1cc(-c2cccc3c2Sc2ccccc2S3)oc(N2CCOCC2)c1 [KU55933] (first compound 0.075 µM, partner dose 5 µM)", "cell count": 66.6}, {"smiles": "C[C@]1(O)C[C@@H](c2nc(-c3ccc4ccc(-c5ccccc5)nc4c3)c3c(N)nccn32)C1", "note": "+ Nc1ncn([C@H]2C[C@H](O)[C@@H](CO)O2)c(=O)n1 [decitabine] (first compound 2 µM, partner dose 0.5 µM)", "cell count": 92.7}, {"smiles": "COc1cc([C@@H]2c3cc4c(cc3[C@@H](O[C@@H]3O[C@@H]5CO[C@@H](C)O[C@H]5[C@H](O)[C@H]3O)[C@H]3COC(=O)[C@H]23)OCO4)cc(OC)c1O", "note": "[etoposide] + O=C(Nc1ccccc1)c1cc([N+](=O)[O-])ccc1Cl [GW9662] (first compound 0.1 µM, partner dose 10 µM)", "cell count": 78.5}, {"smiles": "CCN(CC)CCNC(=O)c1c(C)[nH]c(/C=C2\\C(=O)Nc3ccc(F)cc32)c1C", "note": "[sunitinib] + NC1(c2ccc(-c3nc4ccn5c(=O)[nH]nc5c4cc3-c3ccccc3)cc2)CCC1 [MK2206] (first compound 2 µM, partner dose 2 µM)", "cell count": 63.9}, {"smiles": "Cn1cnc2c(F)c(Nc3ccc(Br)cc3Cl)c(C(=O)NOCCO)cc21", "note": "[selumetinib] + COCC[n+]1c2c(n(Cc3cnccn3)c1C)C(=O)c1ccccc1C2=O [YM155] (first compound 0.075 µM, partner dose 0.002 µM)", "cell count": 80.6}, {"smiles": "Cn1cnc2c(F)c(Nc3ccc(Br)cc3Cl)c(C(=O)NOCCO)cc21", "note": "[selumetinib] + NC1(c2ccc(-c3nc4ccn5c(=O)[nH]nc5c4cc3-c3ccccc3)cc2)CCC1 [MK2206] (first compound 0.075 µM, partner dose 2 µM)", "cell count": 56.3}, {"smiles": "COc1cc([C@@H]2c3cc4c(cc3[C@@H](O[C@@H]3O[C@@H]5CO[C@@H](C)O[C@H]5[C@H](O)[C@H]3O)[C@H]3COC(=O)[C@H]23)OCO4)cc(OC)c1O", "note": "[etoposide] + COc1cc(Nc2ncc(F)c(Nc3ccc4c(n3)NC(=O)C(C)(C)O4)n2)cc(OC)c1OC [Tamatinib] (first compound 0.1 µM, partner dose 2 µM)", "cell count": 79.4}, {"smiles": "Cn1cnc2c(F)c(Nc3ccc(Br)cc3Cl)c(C(=O)NOCCO)cc21", "note": "[selumetinib] + CC(C)C[C@H](NC(=O)[C@H](Cc1ccccc1)NC(=O)c1cnccn1)B(O)O [Bortezomib] (first compound 0.075 µM, partner dose 0.005 µM)", "cell count": 16.1}, {"smiles": "COc1cc([C@@H]2c3cc4c(cc3[C@@H](O[C@@H]3O[C@@H]5CO[C@@H](C)O[C@H]5[C@H](O)[C@H]3O)[C@H]3COC(=O)[C@H]23)OCO4)cc(OC)c1O", "note": "[etoposide] + Oc1nc(-c2ccc(C(F)(F)F)cc2)nc2c1CSCC2 [XAV939] (first compound 0.1 µM, partner dose 10 µM)", "cell count": 76.8}, {"smiles": "COc1cc([C@@H]2c3cc4c(cc3[C@@H](O[C@@H]3O[C@@H]5CO[C@@H](C)O[C@H]5[C@H](O)[C@H]3O)[C@H]3COC(=O)[C@H]23)OCO4)cc(OC)c1O", "note": "[etoposide] + COc1ccc(C2=N[C@@H](c3ccc(Cl)cc3)[C@@H](c3ccc(Cl)cc3)N2C(=O)N2CCNC(=O)C2)c(OC(C)C)c1 [Nutlin-3] (first compound 0.1 µM, partner dose 0.5 µM)", "cell count": 90}, {"smiles": "Cn1cnc2c(F)c(Nc3ccc(Br)cc3Cl)c(C(=O)NOCCO)cc21", "note": "[selumetinib] + COc1ccc(COc2ccc(Cc3cnc(N)nc3N)cc2OC)cc1 [GW2580] (first compound 0.075 µM, partner dose 5 µM)", "cell count": 87.1}, {"smiles": "C[C@]1(O)C[C@@H](c2nc(-c3ccc4ccc(-c5ccccc5)nc4c3)c3c(N)nccn32)C1", "note": "+ Cn1c(=O)n(-c2ccc(C(C)(C)C#N)cc2)c2c3cc(-c4cnc5ccccc5c4)ccc3ncc21 [NVP-BEZ235] (first compound 2 µM, partner dose 0.02 µM)", "cell count": 66.7}, {"smiles": "Cn1cnc2c(F)c(Nc3ccc(Br)cc3Cl)c(C(=O)NOCCO)cc21", "note": "[selumetinib] + O=C(O)c1ccc(-c2c[nH]c3ncc(-c4ccccc4)cc23)cc1C1CCCC1 [GSK650394] (first compound 0.075 µM, partner dose 0.8 µM)", "cell count": 75.9}, {"smiles": "COc1cc([C@@H]2c3cc4c(cc3[C@@H](O[C@@H]3O[C@@H]5CO[C@@H](C)O[C@H]5[C@H](O)[C@H]3O)[C@H]3COC(=O)[C@H]23)OCO4)cc(OC)c1O", "note": "[etoposide] + COc1ccc2c(c1)CCC1C2CCC2(C)C(NCCCCCCN3C(=O)C=CC3=O)CCC12 [U73122] (first compound 0.1 µM, partner dose 2 µM)", "cell count": 85.6}, {"smiles": "COc1cc([C@@H]2c3cc4c(cc3[C@@H](O[C@@H]3O[C@@H]5CO[C@@H](C)O[C@H]5[C@H](O)[C@H]3O)[C@H]3COC(=O)[C@H]23)OCO4)cc(OC)c1O", "note": "[etoposide] + COc1ccc(-c2ccc3c(N4CCOCC4)nc(N4C[C@@H](C)O[C@@H](C)C4)nc3n2)cc1CO [KU0063794] (first compound 0.1 µM, partner dose 0.1 µM)", "cell count": 73.5}, {"smiles": "COc1cc([C@@H]2c3cc4c(cc3[C@@H](O[C@@H]3O[C@@H]5CO[C@@H](C)O[C@H]5[C@H](O)[C@H]3O)[C@H]3COC(=O)[C@H]23)OCO4)cc(OC)c1O", "note": "[etoposide] + Cc1cc(N2CCOCC2)cc2[nH]c(-c3c(NC[C@@H](O)c4cccc(Cl)c4)cc[nH]c3=O)nc12 [BMS536924] (first compound 0.1 µM, partner dose 1 µM)", "cell count": 98.1}, {"smiles": "Cn1cnc2c(F)c(Nc3ccc(Br)cc3Cl)c(C(=O)NOCCO)cc21", "note": "[selumetinib] + CN1CCN(c2ccc3nc(-c4c(N)c5c(F)cccc5[nH]c4=O)[nH]c3c2)CC1 [Dovitinib] (first compound 0.075 µM, partner dose 0.5 µM)", "cell count": 50}, {"smiles": "C[C@]1(O)C[C@@H](c2nc(-c3ccc4ccc(-c5ccccc5)nc4c3)c3c(N)nccn32)C1", "note": "+ O=S(=O)(c1ccccc1)N(CC(F)(F)F)c1ccc(C(O)(C(F)(F)F)C(F)(F)F)cc1 [T0901317] (first compound 2 µM, partner dose 7 µM)", "cell count": 90.8}]}]}
